# Results: the supplement of paper PMC8728848
# This is one part of the list.
# B1: MAL-II (Maackia amurensis), P93248 (protein)
# chain: ATSNSKPTQVLLATFLTFFFLLLNNVNSSDELSFTINNFVPNEADLLFQGEASVSSTGVLQLTRVENGQPQQYSVGRALYAAPVRIWDNTTGSVASFSTSFTFVVKAPNPTITSDGLAFFLAPPDSQIPSGRVSKYLGLFNNSNSDSSNQIVAVEFDTYFGHSYDPWDPNYRHIGIDVNGIESIKTVQWDWINGGVAFATITYLAPNKTLIASLVYPSNQTSFIVAASVDLKEILPEWVRVGFSAATGYPTQVETHDVLSWSFTSTLEANSDAATENNVHIARYTA
# Key:
# Assay in all cases: glycan array binding signal (z-score within array); higher = stronger binding
# Settings in all cases: glycan notation: IUPAC condensed, linker removed
# [1] = molecular target: Gal(b1-3)[Neu5Ac(b2-6)]GalNAc
# Summary of the method: (§1)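 The Consortium for Functional Glycomics database supplied 3228 glycan arrays, of which those lacking an available protein sequence were dropped. The binding signal, a within-array Z-score, was averaged across arrays of the same protein sequence and across linkers. Negative scores can be read as non-binding.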
# Gal(b1-4)Gal = molecular target: Gal(b1-4)Gal
# Summary of the method: as §1
# [2] = molecular target: Gal(b1-4)GalNAc(a1-3)[Fuc(a1-2)]Gal(b1-4)GlcNAc
# Summary of the method: as §1
# [3] = molecular target: Gal(b1-4)GalNAc(b1-3)[Fuc(a1-2)]Gal(b1-4)GlcNAc
# Summary of the method: as §1
# Gal(b1-4)Glc = molecular target: Gal(b1-4)Glc
# Summary of the method: as §1
# Gal(b1-4)Glc6S = molecular target: Gal(b1-4)Glc6S
# Summary of the method: as §1
# Gal(b1-4)GlcNAc = molecular target: Gal(b1-4)GlcNAc
# Summary of the method: as §1
# [4] = molecular target: Gal(b1-4)GlcNAc(a1-6)Gal(b1-4)GlcNAc
# Summary of the method: as §1
# Gal(b1-4)GlcNAc(b1-2)Man = molecular target: Gal(b1-4)GlcNAc(b1-2)Man
# Summary of the method: as §1
# [5] = molecular target: Gal(b1-4)GlcNAc(b1-2)Man(a1-3)Man(b1-4)GlcNAc(b1-4)GlcNAc
# Summary of the method: as §1
# [6] = molecular target: Gal(b1-4)GlcNAc(b1-2)Man(a1-3)[Gal(b1-4)GlcNAc(b1-2)Man(a1-6)]Man(b1-4)GlcNAc(b1-4)GlcNAc
# Summary of the method: as §1
# [7] = molecular target: Gal(b1-4)GlcNAc(b1-2)Man(a1-3)[Gal(b1-4)GlcNAc(b1-2)Man(a1-6)]Man(b1-4)GlcNAc(b1-4)[Fuc(a1-6)]GlcNAc
# Summary of the method: as §1
# [8] = molecular target: Gal(b1-4)GlcNAc(b1-2)Man(a1-3)[Gal(b1-4)GlcNAc(b1-2)Man(a1-6)][Gal(b1-4)GlcNAc(b1-4)]Man(b1-4)GlcNAc(b1-4)[Fuc(a1-6)]GlcNAc
# Summary of the method: as §1
# [9] = molecular target: Gal(b1-4)GlcNAc(b1-2)Man(a1-3)[Gal(b1-4)GlcNAc(b1-2)Man(a1-6)][GlcNAc(b1-4)]Man(b1-4)GlcNAc(b1-4)[Fuc(a1-6)]GlcNAc
# Summary of the method: as §1
# [10] = molecular target: Gal(b1-4)GlcNAc(b1-2)Man(a1-3)[GlcNAc(b1-2)Man(a1-6)]Man(b1-4)GlcNAc(b1-4)GlcNAc
# Summary of the method: as §1
# [11] = molecular target: Gal(b1-4)GlcNAc(b1-2)Man(a1-3)[GlcNAc(b1-4)][Gal(b1-4)GlcNAc(b1-2)Man(a1-6)]Man(b1-4)GlcNAc(b1-4)GlcNAc
# Summary of the method: as §1
# [12] = molecular target: Gal(b1-4)GlcNAc(b1-2)Man(a1-3)[Man(a1-6)]Man(b1-4)GlcNAc(b1-4)GlcNAc
# Summary of the method: as §1
# [13] = molecular target: Gal(b1-4)GlcNAc(b1-2)Man(a1-6)Man(b1-4)GlcNAc(b1-4)GlcNAc
# Summary of the method: as §1
# [14] = molecular target: Gal(b1-4)GlcNAc(b1-2)Man(a1-6)[GlcNAc(b1-2)Man(a1-3)]Man(b1-4)GlcNAc(b1-4)GlcNAc
# Summary of the method: as §1
# [15] = molecular target: Gal(b1-4)GlcNAc(b1-2)Man(a1-6)[Man(a1-3)]Man(b1-4)GlcNAc(b1-4)GlcNAc
# Summary of the method: as §1
# [16] = molecular target: Gal(b1-4)GlcNAc(b1-2)[Gal(b1-4)GlcNAc(b1-4)]Man(a1-3)[Gal(b1-4)GlcNAc(b1-2)Man(a1-6)]Man(b1-4)GlcNAc(b1-4)GlcNAc
# Summary of the method: as §1
# [17] = molecular target: Gal(b1-4)GlcNAc(b1-2)[Gal(b1-4)GlcNAc(b1-4)]Man(a1-3)[Gal(b1-4)GlcNAc(b1-2)[Gal(b1-4)GlcNAc(b1-6)]Man(a1-6)]Man(b1-4)GlcNAc(b1-4)GlcNAc
# Summary of the method: as §1
# [18] = molecular target: Gal(b1-4)GlcNAc(b1-2)[Gal(b1-4)GlcNAc(b1-4)]Man(a1-3)[GlcNAc(b1-4)][Gal(b1-4)GlcNAc(b1-2)Man(a1-6)]Man(b1-4)GlcNAc(b1-4)GlcNAc
# Summary of the method: as §1
# [19] = molecular target: Gal(b1-4)GlcNAc(b1-2)[Gal(b1-4)GlcNAc(b1-4)]Man(a1-3)[GlcNAc(b1-4)][Gal(b1-4)GlcNAc(b1-2)[Gal(b1-4)GlcNAc(b1-6)]Man(a1-6)]Man(b1-4)GlcNAc(b1-4)GlcNAc
# Summary of the method: as §1
# [20] = molecular target: Gal(b1-4)GlcNAc(b1-2)[Gal(b1-4)GlcNAc(b1-6)]Man(a1-6)[Gal(b1-4)GlcNAc(b1-2)Man(a1-3)]Man(b1-4)GlcNAc(b1-4)GlcNAc
# Summary of the method: as §1
# [21] = molecular target: Gal(b1-4)GlcNAc(b1-2)[Gal(b1-4)GlcNAc(b1-6)]Man(a1-6)[Gal(b1-4)GlcNAc(b1-2)Man(a1-3)]Man(b1-4)GlcNAc(b1-4)[Fuc(a1-6)]GlcNAc
# Summary of the method: as §1
# [22] = molecular target: Gal(b1-4)GlcNAc(b1-2)[Gal(b1-4)GlcNAc(b1-6)]Man(a1-6)[GlcNAc(b1-4)][Gal(b1-4)GlcNAc(b1-2)Man(a1-3)]Man(b1-4)GlcNAc(b1-4)GlcNAc
# Summary of the method: as §1
# [23] = molecular target: Gal(b1-4)GlcNAc(b1-2)[Gal(b1-4)GlcNAc(b1-6)]Man(a1-6)[GlcNAc(b1-4)][Gal(b1-4)GlcNAc(b1-2)[Gal(b1-4)GlcNAc(b1-4)]Man(a1-3)]Man(b1-4)GlcNAc(b1-4)[Fuc(a1-6)]GlcNAc
# Summary of the method: as §1
# [24] = molecular target: Gal(b1-4)GlcNAc(b1-3)Gal(b1-3)GalNAc
# Summary of the method: as §1
# [25] = molecular target: Gal(b1-4)GlcNAc(b1-3)Gal(b1-3)GlcNAc
# Summary of the method: as §1
# [26] = molecular target: Gal(b1-4)GlcNAc(b1-3)Gal(b1-4)Glc
# Summary of the method: as §1
# [27] = molecular target: Gal(b1-4)GlcNAc(b1-3)Gal(b1-4)GlcNAc
# Summary of the method: as §1
# [28] = molecular target: Gal(b1-4)GlcNAc(b1-3)Gal(b1-4)GlcNAc(b1-2)Man(a1-3)[Gal(b1-4)GlcNAc(b1-3)Gal(b1-4)GlcNAc(b1-2)Man(a1-6)]Man(b1-4)GlcNAc(b1-4)GlcNAc
# Summary of the method: as §1
# [29] = molecular target: Gal(b1-4)GlcNAc(b1-3)Gal(b1-4)GlcNAc(b1-2)Man(a1-3)[Gal(b1-4)GlcNAc(b1-3)Gal(b1-4)GlcNAc(b1-2)Man(a1-6)]Man(b1-4)GlcNAc(b1-4)[Fuc(a1-6)]GlcNAc
# Summary of the method: as §1
# [30] = molecular target: Gal(b1-4)GlcNAc(b1-3)Gal(b1-4)GlcNAc(b1-2)[Gal(b1-4)GlcNAc(b1-3)Gal(b1-4)GlcNAc(b1-6)]Man(a1-6)[Gal(b1-4)GlcNAc(b1-3)Gal(b1-4)GlcNAc(b1-2)Man(a1-3)]Man(b1-4)GlcNAc(b1-4)GlcNAc
# Summary of the method: as §1
# [31] = molecular target: Gal(b1-4)GlcNAc(b1-3)Gal(b1-4)GlcNAc(b1-2)[Gal(b1-4)GlcNAc(b1-3)Gal(b1-4)GlcNAc(b1-6)]Man(a1-6)[Gal(b1-4)GlcNAc(b1-3)Gal(b1-4)GlcNAc(b1-2)Man(a1-3)]Man(b1-4)GlcNAc(b1-4)[Fuc(a1-6)]GlcNAc
# Summary of the method: as §1
# [32] = molecular target: Gal(b1-4)GlcNAc(b1-3)Gal(b1-4)GlcNAc(b1-3)Gal(b1-4)GlcNAc
# Summary of the method: as §1
# [33] = molecular target: Gal(b1-4)GlcNAc(b1-3)Gal(b1-4)GlcNAc(b1-3)Gal(b1-4)GlcNAc(b1-2)Man(a1-3)[Gal(b1-4)GlcNAc(b1-3)Gal(b1-4)GlcNAc(b1-3)Gal(b1-4)GlcNAc(b1-2)Man(a1-6)]Man(b1-4)GlcNAc(b1-4)GlcNAc
# Summary of the method: as §1
binder,measurement,setting,value
B1,glycan array binding signal (z-score),[1],-0.33
same,glycan array binding signal (z-score),Gal(b1-4)Gal,-0.074
same,glycan array binding signal (z-score),[2],-0.198
same,glycan array binding signal (z-score),[3],-0.263
same,glycan array binding signal (z-score),Gal(b1-4)Glc,-0.219
same,glycan array binding signal (z-score),Gal(b1-4)Glc6S,-0.235
same,glycan array binding signal (z-score),Gal(b1-4)GlcNAc,-0.219
same,glycan array binding signal (z-score),[4],-0.225
same,glycan array binding signal (z-score),Gal(b1-4)GlcNAc(b1-2)Man,-0.194
same,glycan array binding signal (z-score),[5],-0.199
same,glycan array binding signal (z-score),[6],-0.218
same,glycan array binding signal (z-score),[7],-0.167
same,glycan array binding signal (z-score),[8],-0.155
same,glycan array binding signal (z-score),[9],-0.223
same,glycan array binding signal (z-score),[10],-0.218
same,glycan array binding signal (z-score),[11],-0.267
same,glycan array binding signal (z-score),[12],-0.218
same,glycan array binding signal (z-score),[13],-0.215
same,glycan array binding signal (z-score),[14],-0.206
same,glycan array binding signal (z-score),[15],-0.196
same,glycan array binding signal (z-score),[16],-0.085
same,glycan array binding signal (z-score),[17],-0.229
same,glycan array binding signal (z-score),[18],-0.183
same,glycan array binding signal (z-score),[19],-0.114
same,glycan array binding signal (z-score),[20],-0.199
same,glycan array binding signal (z-score),[21],-0.175
same,glycan array binding signal (z-score),[22],-0.145
same,glycan array binding signal (z-score),[23],-0.199
same,glycan array binding signal (z-score),[24],-0.039
same,glycan array binding signal (z-score),[25],-0.184
same,glycan array binding signal (z-score),[26],-0.219
same,glycan array binding signal (z-score),[27],-0.223
same,glycan array binding signal (z-score),[28],0.101
same,glycan array binding signal (z-score),[29],0.489
same,glycan array binding signal (z-score),[30],0.262
same,glycan array binding signal (z-score),[31],1.49
same,glycan array binding signal (z-score),[32],-0.24
same,glycan array binding signal (z-score),[33],0.674
